Among all 45,000 compounds or so, about 65 (0.1%) were called active. Calls come from the whole dose curve; as a rule, active = well fitted activation curve with a large enough effect; inconclusive = small, poorly fitted or top-dose-only effect; inactive = no such curve, though single readings can be large or run the other way. Some of the results follow.
The compounds below were run against Galactocerebrosidase (Homo sapiens) (UniProt P54803) (assay: A Novel Cell-Based Assay to Identify Small Molecules for B -Galactocerebrosidase). Conditions: 145M-Twi-hGALC-G270D cells, HMU-beta-Gal fluorescence, 48 h; series mostly up to 57.5 µM; activation: at the top concentration.
Chain of UniProt P54803 (P54803 whole entry, looked up): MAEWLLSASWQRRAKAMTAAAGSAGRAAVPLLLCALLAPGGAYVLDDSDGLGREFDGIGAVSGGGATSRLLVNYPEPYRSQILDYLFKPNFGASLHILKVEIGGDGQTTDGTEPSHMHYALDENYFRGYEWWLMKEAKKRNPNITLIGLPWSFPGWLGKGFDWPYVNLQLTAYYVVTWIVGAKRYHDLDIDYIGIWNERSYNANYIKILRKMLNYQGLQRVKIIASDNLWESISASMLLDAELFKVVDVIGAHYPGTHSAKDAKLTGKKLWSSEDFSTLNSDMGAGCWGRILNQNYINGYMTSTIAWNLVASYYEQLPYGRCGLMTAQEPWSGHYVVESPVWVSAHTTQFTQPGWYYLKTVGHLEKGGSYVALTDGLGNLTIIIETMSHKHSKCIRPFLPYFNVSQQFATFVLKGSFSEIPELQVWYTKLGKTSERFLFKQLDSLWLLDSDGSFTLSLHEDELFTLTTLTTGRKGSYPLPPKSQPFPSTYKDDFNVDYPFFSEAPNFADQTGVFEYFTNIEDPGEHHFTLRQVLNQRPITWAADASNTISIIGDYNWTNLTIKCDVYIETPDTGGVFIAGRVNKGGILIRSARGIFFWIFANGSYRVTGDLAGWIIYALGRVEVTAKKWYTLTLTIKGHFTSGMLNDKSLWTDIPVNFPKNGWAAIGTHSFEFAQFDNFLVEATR
Method in brief: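 qHTS, 1536-well; 145M-Twi-hGALC-G270D cells (WT line also made) in DMEM/F12 + 10% FBS; compound incubation on live cells; HMU-β-gal 0.1 mM final, pH 5.2, NaTC; carbonate stop; fluorescence increase = enhanced residual activity.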
Note: 0% is about no effect; nearly all actives have a fitted effect of over 65% in size.

activation, inactive:
COCCCNC(=O)c1cnn(-c2ccccc2Cl)c1C1CCN(C(=O)OC(C)(C)C)CC1 2.71%
CCOCN(C(=O)CSc1nc2ccccc2[nH]1)c1c(C)cccc1CC 10.7%
CCOC(=O)c1c(C)oc2nc(C)nc(NCc3cccc(OC)c3)c12 -16.5%
O=C(c1ccccc1)c1ccc2nc(Nc3ccccc3Cl)c3nncn3c2c1 -10.5%
CCCCN(CC)C(=O)Cn1nc(C)c2c(C)n(-c3ccccc3)nc2c1=O -5.72%
COc1ccccc1NC(=O)CCNS(=O)(=O)c1ccc2c(c1)CCCC(=O)N2 -18.6%
CCn1c(=O)cc(SCC(=O)N2CCN(c3cc(C)ccc3C)CC2)c2ccccc21 -4.26%
C[C@H](CS)C(=O)N1CCC[C@H]1C(=O)O -14.2%
CCOC(=O)c1cc(OC(=O)c2ccc(OC)c(OC)c2)n(-c2ccccc2)n1 -14.5%
Cc1cccc(Cn2c(SCc3ccc(C(=O)NC4CCCCC4)cc3)nc3cccnc32)c1 -15%
Cc1ccc(N2CC(C(=O)Nc3ccc(Cl)cc3Cl)CC2=O)cc1 (configuration not stated) -10.8%
COc1ccccc1CNC(=O)CCCn1c(=O)c2ccccc2n(Cc2ccccc2F)c1=O 6%
COc1ccc(C(=O)Nc2nnc(S(=O)(=O)N3CCOCC3)s2)cc1 -16.7%
CCc1ccc(-c2csc(-c3cc4cc(Br)ccc4oc3=O)n2)cc1 9.37%
Cc1nn(C(C)C(=O)NCc2cccc(F)c2)c(=O)c2c1sc1ccccc12 (configuration not stated) -5.72%
O=C(CSc1nnc(-c2ccccc2)o1)N1CCCc2ccccc21 -12.1%
CN(Cc1cc(Br)cc(Br)c1N)C1CCCCC1 -14.8%
COc1ccc(C)cc1NC(=O)C(NS(=O)(=O)c1cccc2nsnc12)c1ccccc1 (configuration not stated) -13%
Cc1ccc(C)c(N2CCN(C(=O)Cn3nc(Cc4cccnc4)c4ccccc4c3=O)CC2)c1 -27.7%
CCOC(=O)N1CCc2c(sc3c2c(=O)n(-c2ccc(Cl)cc2)c(=O)n3CC(=O)Nc2ccccc2)C1 -13.3%
CCN(CC)C(=O)Cn1cc(SCC(=O)Nc2ccc(C)cc2)c2ccccc21 -24.7%
Cc1cc(C)c2c(C)c(C(=O)N3CCC(c4nc5ccccc5s4)CC3)oc2c1 -16%
Cn1cnc2c(F)c(Nc3ccc(Br)cc3Cl)c(C(=O)NOCCO)cc21 -18%
CCn1c2ccc(F)cc2c2nnc(SCCN3CCCCC3)nc21 -21.7%
Cc1cccc(CNC(=O)C2CCN(c3nc4ccc(Cl)cc4[nH]3)CC2)c1 -7.37%
Cc1ccc(C(=O)Nc2ccccc2F)cc1S(=O)(=O)N1CCOCC1 1.48%
Cc1ccc(NC(=O)CCC(=O)N2CCOc3ccccc32)c(Cl)c1 -8.52%
Cc1nc2c3ccccc3nc(NNC(=O)CCC(=O)N3CCN(c4ccccc4F)CC3)n2n1 -31.6%
COc1cc(C2c3c(oc4ccc(C)cc4c3=O)C(=O)N2Cc2ccc(F)cc2)ccc1O (configuration not stated) -13.1%
COc1ccc(C2Nc3ccccc3-c3nnc(SC)nc3O2)cc1C (configuration not stated) -7.44%
O=C(Nc1ccc2nc(SCC(=O)N3CCCc4ccccc43)sc2c1)c1ccc(F)cc1 -8.6%
CCCCN(CC)C(=O)Cn1c(=O)n(-c2ccc(OCC)cc2)c(=O)c2c3c(sc21)CCCC3 -10.1%
CCC(=O)N1CCCc2cc(S(=O)(=O)Nc3ccc(C)c(C)c3)ccc21 -43.7%
Cc1c(C(=O)Nc2ccc(Br)cc2F)sc2ncnc(N(C)C3CCCCC3)c12 -9.33%
Cc1nc2cccnc2n1-c1cccc(C(=O)NCCc2ccc(Cl)cc2)c1 -16.6%
N#Cc1ccccc1NC(=O)C(=O)NCC(c1ccc2c(c1)OCO2)N1CCN(c2ccccc2)CC1 (configuration not stated) -15.6%
COc1ccc(NC(=O)CSc2nc(-c3ccccc3)nc3cc(=O)[nH]n23)cc1 -14.2%
CCOC(=O)c1cnc2c(OC)cccc2c1Nc1cccc(O)c1 -0.766%
CSc1ncc(C(=O)Nc2ccccc2C(=O)c2ccccc2)c(C)n1 -10.5%
CC(C)(C)c1ccc(NC(=O)CSc2nnc3scc(-c4ccccc4)n23)cc1 -2.33%
O=C(Nc1c(C(=O)c2ccccc2)oc2ccccc12)c1cc(=O)c2ccccc2o1 12.3%
Cn1cnc(S(=O)(=O)N2CCC(C(=O)N3CCN(c4cccc(C(F)(F)F)c4)CC3)CC2)c1 -11.8%
CCOC(=O)c1c(C)[nH]c(C)c1S(=O)(=O)NCC(=O)N(C)c1ccc(C)c(C)c1 -16.6%
Cc1nn(S(=O)(=O)c2ccc(F)cc2)c(C)c1S(=O)(=O)N1CCC(C)CC1 -5.72%
COc1ccc(NC(=O)C2CCCN(S(=O)(=O)c3ccc4c(c3)CCCC(=O)N4)C2)c(OC)c1 (configuration not stated) -25.9%
COc1cccc2cc(C(=O)NCCc3c(C)[nH]c4ccc(Br)cc34)c(=O)oc12 19.4%
Cc1ccnc(NS(=O)(=O)c2cc(-c3cc(C)no3)ccc2C)c1 -11.3%
Cc1ccc(-n2ncc(C(=O)Nc3ccc4c(c3)OCO4)c2C2CCN(C(=O)OC(C)(C)C)CC2)cc1 -3.2%
CCc1ccc(N(CC)C(=O)Cn2c(=O)oc3ccccc32)cc1 -14.7%
CC(C)(C)NC(=O)c1cnn2c(C(F)F)cc(-c3ccccc3)nc12 -13.2%
Cc1ccc(-c2cnc(NCc3ccc(C(F)(F)F)cc3)n2C)cc1 -15%
COc1ccc(/C=C/C(=O)Nc2nc3n(n2)C(c2ccccc2)C=C(c2ccccc2)N3)cc1 (configuration not stated) -14.8%
Cc1ccc(CCNC(=O)C2CCN(c3nnc(-n4cccc4CNc4ccc(C)cc4)s3)CC2)cc1 6.11%
CCN(C(=O)Cn1c(=O)oc2cc(Cl)ccc21)c1cccc(C(F)(F)F)c1 -10.9%
CCOC(=O)c1cc2c(=O)n3ccccc3nc2n(CC(C)C)c1=NC(=O)c1cc2ccccc2o1 -18.5%
CC(=O)c1cccc(NC(=O)CCS(=O)(=O)c2ccc(Br)s2)c1 -10.4%
O=C(CN1C(=O)CC(c2ccccc2)Sc2ccccc21)Nc1cccc(Cl)c1 (configuration not stated) -0.295%
CCOCCn1ccc2c(OCC(=O)Nc3ccc(OC(F)(F)F)cc3)cccc2c1=O -11.1%
Clc1ccccc1CNc1nc2ccccc2c2nc(-c3cccnc3)nn12 -9.46%
COc1ccc(Cl)cc1NC(=O)c1c(NCc2sccc2C)sc2c1CCCC2 -14.9%
COCCCNC(=O)c1cc(-c2cccnc2)nc2ccc(S(=O)(=O)N3CCC(C)CC3)cc12 -2.29%
CN1C(=O)C2(c3ccccc31)N(c1cccc(F)c1)C(=O)CS2(=O)=O (configuration not stated) -27.7%

Source: PubChem BioAssay AID1159614 (National Center for Advancing Translational Sciences (NCATS), 2016)
